These are yes or no findings as the source states them, for the method shown. Some binding calls cover weakened binding; strength is not graded here.
Target: T1, endogenous IRF3 of RAW264.7 cells (mouse (endogenous in RAW264.7)), P70671
T1 chain: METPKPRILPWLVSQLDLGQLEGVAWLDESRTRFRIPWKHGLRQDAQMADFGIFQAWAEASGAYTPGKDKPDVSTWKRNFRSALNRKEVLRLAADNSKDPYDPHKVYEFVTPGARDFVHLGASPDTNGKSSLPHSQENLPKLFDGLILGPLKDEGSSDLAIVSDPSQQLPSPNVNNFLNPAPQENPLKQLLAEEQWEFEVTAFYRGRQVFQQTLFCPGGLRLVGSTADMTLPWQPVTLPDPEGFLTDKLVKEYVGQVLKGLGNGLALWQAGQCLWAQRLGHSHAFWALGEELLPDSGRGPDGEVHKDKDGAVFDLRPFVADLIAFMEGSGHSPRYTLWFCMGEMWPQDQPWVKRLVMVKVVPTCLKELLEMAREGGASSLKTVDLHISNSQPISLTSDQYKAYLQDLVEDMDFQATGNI
Test: native gel or EMSA
Details: remark: other sources report otherwise

B1: endogenous IRF3 of RAW264.7 cells, P70671 1-419 (protein)
chain: T1 chain
binding: binds
